In article PMC9739390:
Results are given in words; binding and its absence hold for the method and conditions named. Binding seen in cells or lysates may run through a third protein. Some binding calls cover weakened binding; strength is not graded here. One block for each molecule: values may come before it.

Chains of the proteins cited; added tags and fusions are not shown.
UniProt P52952: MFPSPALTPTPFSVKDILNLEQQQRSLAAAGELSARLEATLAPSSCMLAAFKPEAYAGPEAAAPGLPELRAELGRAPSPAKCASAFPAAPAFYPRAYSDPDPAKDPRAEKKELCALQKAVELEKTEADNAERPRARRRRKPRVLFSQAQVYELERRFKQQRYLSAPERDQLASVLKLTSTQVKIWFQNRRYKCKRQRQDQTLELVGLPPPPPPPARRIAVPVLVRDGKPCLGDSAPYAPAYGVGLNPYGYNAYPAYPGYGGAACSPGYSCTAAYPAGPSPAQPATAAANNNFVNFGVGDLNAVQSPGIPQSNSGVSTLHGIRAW
UniProt P43694: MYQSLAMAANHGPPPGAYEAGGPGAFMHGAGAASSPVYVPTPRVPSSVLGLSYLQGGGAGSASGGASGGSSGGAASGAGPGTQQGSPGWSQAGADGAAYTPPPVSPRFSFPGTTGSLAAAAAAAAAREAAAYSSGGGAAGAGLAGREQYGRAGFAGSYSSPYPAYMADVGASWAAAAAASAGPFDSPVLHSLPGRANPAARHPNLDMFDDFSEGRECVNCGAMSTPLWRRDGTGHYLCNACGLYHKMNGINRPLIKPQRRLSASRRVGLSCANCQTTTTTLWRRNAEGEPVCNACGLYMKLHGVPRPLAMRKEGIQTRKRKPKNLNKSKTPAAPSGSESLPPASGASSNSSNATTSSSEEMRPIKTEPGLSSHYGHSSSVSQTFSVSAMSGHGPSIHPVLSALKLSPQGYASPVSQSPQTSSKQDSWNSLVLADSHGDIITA

Experiments:
[1] = target: T1, IRX5 (human) (UniProt P78411); assay: co-IP; as a1, but HEK293 co-transfected with four TFs: IRX3, IRX5, GATA4 and NKX2-5
T1 sequence: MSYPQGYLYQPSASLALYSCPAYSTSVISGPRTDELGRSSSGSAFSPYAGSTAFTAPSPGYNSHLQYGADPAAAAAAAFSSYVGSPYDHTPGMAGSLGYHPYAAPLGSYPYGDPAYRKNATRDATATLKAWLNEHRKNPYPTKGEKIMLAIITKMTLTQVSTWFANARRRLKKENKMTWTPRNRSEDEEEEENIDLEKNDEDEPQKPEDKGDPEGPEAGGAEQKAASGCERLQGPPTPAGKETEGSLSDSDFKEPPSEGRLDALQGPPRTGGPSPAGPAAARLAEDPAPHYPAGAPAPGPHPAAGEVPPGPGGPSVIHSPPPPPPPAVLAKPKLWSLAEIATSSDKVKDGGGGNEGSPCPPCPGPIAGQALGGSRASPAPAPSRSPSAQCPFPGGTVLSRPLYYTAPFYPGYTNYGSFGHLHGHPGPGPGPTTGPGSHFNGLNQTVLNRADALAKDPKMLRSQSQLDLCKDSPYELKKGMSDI

[2] = target: T2, IRX3 (human) (UniProt P78415); assay: as above
T2 sequence: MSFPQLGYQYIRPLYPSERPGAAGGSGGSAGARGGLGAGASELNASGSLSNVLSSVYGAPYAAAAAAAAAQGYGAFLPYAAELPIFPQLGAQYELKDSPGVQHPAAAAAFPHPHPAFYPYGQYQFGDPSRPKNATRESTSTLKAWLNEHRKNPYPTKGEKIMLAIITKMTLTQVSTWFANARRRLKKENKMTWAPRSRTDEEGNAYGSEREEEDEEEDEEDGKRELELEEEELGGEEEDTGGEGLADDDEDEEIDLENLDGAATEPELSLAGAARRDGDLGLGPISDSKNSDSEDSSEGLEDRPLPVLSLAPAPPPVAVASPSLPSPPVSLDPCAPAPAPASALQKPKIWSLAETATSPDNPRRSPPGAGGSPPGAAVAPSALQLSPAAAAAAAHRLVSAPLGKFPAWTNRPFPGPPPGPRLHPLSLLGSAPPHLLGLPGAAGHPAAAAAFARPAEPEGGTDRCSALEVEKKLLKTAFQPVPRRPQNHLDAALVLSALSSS

[3] = target: T1, IRX5 (human); assay: co-IP; as a1, but HEK293 co-transfected with five TFs: IRX3, IRX5, GATA4, NKX2-5 and TBX5
[4] = target: T2, IRX3 (human); assay: as above
[5] = target: T1, IRX5 (human); assay: co-IP; as a1, but HEK293 co-transfected with three TFs: IRX3, IRX5 and GATA4
[6] = target: T2, IRX3 (human); assay: as above
[7] = target: T1, IRX5 (human); assay: co-IP; HEK293 co-transfected with the two TFs of the pair, lysed 24 h post-transfection (1% TritonX-100, 100 mM NaCl, 50 mM Tris-HCl, 1 mM EGTA); antibody cross-linked to Dynabeads Protein G, 1 mg lysate, 4 °C, 2 h; Western blot; precipitating antibody not given
[8] = target: T2, IRX3 (human); assay: as above
[9] = target: T2, IRX3 (human); assay: condition: only with IRX5, GATA4 and TBX5 co-transfected; co-IP; as a1, but HEK293 co-transfected with five TFs: IRX3, IRX5, GATA4, NKX2-5 and TBX5
[10] = target: T2, IRX3 (human); assay: condition: only with IRX5, GATA4 and NKX2-5 co-transfected; co-IP; as a1, but HEK293 co-transfected with five TFs: IRX3, IRX5, GATA4, NKX2-5 and TBX5
[11] = target: T1, IRX5 (human); assay: condition: only with GATA4 and NKX2-5 co-transfected; co-IP; as a1, but HEK293 co-transfected with four TFs: IRX3, IRX5, GATA4 and NKX2-5
[12] = target: T1, IRX5 (human); assay: condition: only with GATA4, NKX2-5 and TBX5 co-transfected; co-IP; as a1, but HEK293 co-transfected with five TFs: IRX3, IRX5, GATA4, NKX2-5 and TBX5

Molecule: NKX2-5 (from UniProt P52952 1-324)
binding [1]: binds
binding [2]: no binding (condition: with IRX5 and GATA4 co-transfected)
binding [3]: binds
binding [7]: binds
binding [8]: binds
binding [9]: no binding

B1: TBX5 (protein, UniProt Q99593 1-518)
chain: MADADEGFGLAHTPLEPDAKDLPCDSKPESALGAPSKSPSSPQAAFTQQGMEGIKVFLHERELWLKFHEVGTEMIITKAGRRMFPSYKVKVTGLNPKTKYILLMDIVPADDHRYKFADNKWSVTGKAEPAMPGRLYVHPDSPATGAHWMRQLVSFQKLKLTNNHLDPFGHIILNSMHKYQPRLHIVKADENNGFGSKNTAFCTHVFPETAFIAVTSYQNHKITQLKIENNPFAKGFRGSDDMELHRMSRMQSKEYPVVPRSTVRQKVASNHSPFSSESRALSTSSNLGSQYQCENGVSGPSQDLLPPPNPYPLPQEHSQIYHCTKRKEEECSTTDHPYKKPYMETSPSEEDSFYRSSYPQQQGLGASYRTESAQRQACMYASSAPPSEPVPSLEDISCNTWPSMPSYSSCTVTTVQPMDRLPYQHFSAHFTSGPLVPRLAGMANHGSPQLGEGMFQHQTSVAHQPVVRQCGPQTGLQSPGTLQPPEFLYSHGVPRTLSPHQYHSVHGVGMVPEWSDNS
binding [10]: no binding
binding [3]: binds
binding [8]: binds

More lines, main results first:

binding [1]: binds
binding [2]: no binding
binding [3]: binds
binding [4]: no binding
binding [5]: binds
binding [6]: no binding
binding [7]: binds
binding [8]: no binding
Molecule: GATA4 (from UniProt P43694 1-442)

binding [11]: no binding
binding [7]: binds
binding [12]: no binding
B2: IRX3 (protein, UniProt P78415 1-501)
chain: T2 sequence
binding [5]: no binding (condition: with GATA4 co-transfected)
